# Experimental data as given in the supplement of paper PMC12217912.
# Some of the results follow. The full chains were built here from the parent and the listed change. Inactive controls read about 0.05.
# B1: TEV protease; numbered along this chain (parent)
# chain: MGESLFKGPRDYNPISSSICHLTNESDGHTTSLYGIGFGPFIITNKHLFRRNNGTLVVQSLHGVFKVKDTTTLQQHLVDGRDMIIIRMPKDFPPFPQKLKFREPQREERICLVTTNFQTKSMSSMVSDTSCTFPSGDGIFWKHWIQTKDGQCGSPLVSTRDGFIVGIHSASNFTNTNNYFTSVPKNFMELLTNQEAQQWVSGWRLNADSVLWGGHKVFMVKPEEPFQPVKEATQL
# Variants of: B1
# Assay: raw area under fraction-flipped curve 0-4 h after induction (AUC4h, not background-subtracted), DNA-recorder readout of cleavage of the substrate (dimensionless); higher = more cleavage of the substrate by the protease variant
# Conditions: temperature: 34 °C; time window: 0-4 h after rhamnose induction
# Protocol: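 In vivo DNA recorder in E. coli TOP10(DE3) ΔrhaA at 34 °C. Each TEVp single-site mutant (parent TEVp 0) is paired with a single-site variant of the 7-mer TEVs (canonical ENLYFQ|S). The substrate sits between flexible linkers in a Bxb1-sfGFP-TEVs-SsrA fusion, so cleavage stabilises Bxb1 and speeds flipping of a recombination array, read by NGS. The value is the raw area under the fraction-flipped curve over 0-4 h after rhamnose induction (AUC4h), with ≥20 reads per time point. It is not background-subtracted; inactive controls average about 0.047.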
# 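Note: Bxb1 expression induced with 0.2% (w/v) L-rhamnose at OD600 near 0.5, cultures sampled hourly, flipped fraction per protease–substrate barcode pair counted by paired-end Illumina sequencing.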
Variant,area with substrate ENLYDQS,area with substrate ENLYEQS,area with substrate ENLYHQS,area with substrate ENLYIQS,area with substrate ENLYMQS,area with substrate ENLYRQS,area with substrate ENLYSQS,area with substrate ENLYYQS,area with substrate ENLYCQS,area with substrate ENLYNQS,area with substrate ENLYPQS,area with substrate ENLYWQS,area with substrate ENLYGQS,area with substrate ENLYKQS,area with substrate ENLYVQS,area with substrate ENLYQQS,area with substrate ENLYTQS,area with substrate ENLYLQS
Q75V,0.0497,0.0596,0.0668,0.118,0.075,0.0665,0.0676,0.0789,–,–,–,–,–,–,–,–,–,–
D69Y,0.052,–,0.0726,–,0.0759,0.0623,–,–,–,–,–,–,–,–,–,–,–,–
M219N,–,0.0503,–,0.0547,–,0.0609,–,–,0.0872,0.071,0.0883,0.088,–,–,–,–,–,–
K90R,0.0472,–,0.0658,–,0.104,–,0.0699,–,–,–,–,0.124,0.0791,0.0555,–,–,–,–
K90P,0.0726,0.0752,0.0698,0.119,0.106,0.0674,–,0.0648,–,0.0647,–,0.0772,–,–,0.115,–,–,–
S17I,0.0554,0.0592,0.0359,0.119,0.0561,0.0686,–,0.063,–,0.0574,0.0429,0.104,0.074,–,0.163,–,–,–
N53F,0.0658,0.0404,–,–,0.063,0.0518,0.0692,0.0582,–,–,0.0596,0.0588,0.065,0.068,0.0796,0.0705,–,–
Q118R,0.0546,0.0626,0.0582,0.131,0.102,0.0641,0.083,–,–,0.0838,0.0684,–,0.0624,0.0632,0.126,0.0502,–,–
L73N,0.063,0.0436,0.0429,0.0669,0.043,0.0441,0.049,0.0434,–,0.0618,0.0526,0.0565,0.0547,–,0.0321,–,0.0673,–
H47Q,0.0675,0.0656,0.0639,–,0.0705,0.063,–,–,–,0.0552,–,0.0705,0.0648,–,–,–,0.0562,–
Y34R,0.0566,0.058,0.069,–,0.0901,–,–,0.0593,–,0.0629,0.0608,0.0995,–,–,–,0.0687,–,–
Y34V,0.0581,–,0.0707,0.1,–,0.0414,–,0.0567,–,0.0611,0.0662,0.0658,–,–,0.0852,–,0.0812,–
R51Y,0.0611,0.0823,0.0697,0.108,0.102,0.0458,0.121,–,–,–,–,0.107,0.0258,–,–,–,–,–
T23D,0.0578,0.0678,0.0698,0.0793,0.0466,0.0589,0.0466,0.0649,–,0.0669,0.0649,0.0818,0.0743,0.0423,0.0901,0.0729,–,–
F117C,0.0477,0.0697,0.0748,0.0418,0.0726,0.0505,0.0769,0.068,–,0.0367,–,0.0816,0.0654,0.0592,0.102,–,0.0743,–
P93T,0.0743,0.0429,0.0713,–,–,–,–,–,–,0.0649,0.0708,0.0799,0.0478,–,–,–,0.102,–

Variant,area with substrate ENLYDQS,area with substrate ENLYEQS,area with substrate ENLYHQS,area with substrate ENLYIQS,area with substrate ENLYMQS,area with substrate ENLYRQS,area with substrate ENLYSQS,area with substrate ENLYYQS,area with substrate ENLYCQS,area with substrate ENLYNQS,area with substrate ENLYPQS,area with substrate ENLYWQS,area with substrate ENLYGQS,area with substrate ENLYKQS,area with substrate ENLYVQS,area with substrate ENLYQQS,area with substrate ENLYTQS,area with substrate ENLYLQS
R106V,0.0643,0.0803,0.066,0.113,–,0.0337,0.0925,0.0725,–,0.0954,0.0835,0.0724,0.0413,0.0545,–,0.0663,–,0.0827
G214R,0.0656,0.0487,0.0635,0.0681,0.0567,0.0601,0.0572,0.0687,0.0634,0.0628,0.069,0.0595,0.061,0.0445,0.0843,0.0647,0.097,0.0523
T30E,0.0626,–,0.0672,0.0724,0.0981,0.0622,0.054,0.0711,–,0.0535,0.0676,0.0845,0.0623,0.0591,0.131,0.0687,0.0666,–
E25F,0.0365,0.0678,0.0701,0.089,–,0.0776,0.0579,–,–,–,0.0672,0.0712,0.0707,0.0603,–,0.051,0.0715,–
E108F,0.0782,0.0625,–,–,–,0.0619,0.0676,0.069,–,–,0.0503,–,0.0553,–,–,–,–,–
T115L,0.07,–,0.0511,0.109,0.0998,0.0488,–,–,–,0.0237,0.0927,0.0848,0.0694,–,–,–,0.0949,0.0901
V67Y,0.0629,0.0682,–,–,–,0.0626,–,0.0759,–,–,–,–,0.0674,0.0527,–,–,0.0742,–
V67F,0.0321,0.0632,0.0696,–,0.0899,–,0.0643,0.0563,–,0.0774,–,0.064,0.0664,–,0.101,–,0.0728,–
P94S,0.0586,0.0491,0.0654,–,0.0873,0.0571,0.0728,–,–,0.0712,–,0.0759,–,0.0972,–,0.0641,0.0893,–
N172G,–,0.0582,0.0672,–,–,–,–,0.061,0.0756,0.0545,–,0.0548,–,–,–,–,–,0.0597
F95I,0.0537,0.08,0.0796,0.0827,–,–,–,0.0322,–,–,0.0496,0.0728,0.0613,0.052,0.103,–,–,–
D27N,0.0614,0.0774,0.0733,0.137,0.0817,0.0599,0.0724,–,–,–,0.0643,0.0473,0.0672,–,0.0555,0.0701,0.0686,0.0745
K230H,0.0465,0.0662,–,–,0.0795,0.0594,0.0774,–,0.0959,0.075,0.0657,0.1,0.0644,0.0627,0.106,0.0757,–,0.071
F6G,0.0582,0.0617,0.055,–,0.0918,–,0.0678,–,–,0.0805,–,0.0798,–,0.021,–,–,–,0.0696
E103R,0.0463,0.0629,0.0582,0.101,0.105,0.0568,0.0641,–,–,0.0694,0.0566,–,0.0673,0.0601,0.102,–,–,–
L77Q,0.0649,0.0779,0.0617,0.0716,0.0585,–,0.052,–,–,0.0665,–,–,–,0.0622,0.0645,0.0638,0.063,0.0525
